PMC4336329 (PLoS ONE, 2015)
The whole screen tested about 310,000 compounds, of which about 14,000 (4.5%) showed an effect of 50% or more. The effect is printed as a negative number. The list shows a part of the results.
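Also: peak tail current of the secondary pulse compared with the same well before compound.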

These compounds were tested against human ether-à-go-go-related gene (hERG) potassium channel (human, UniProt Q12809) (assay: primary screen, population patch clamp on CHO cells stably expressing hERG).
human ether-à-go-go-related gene (hERG) potassium channel, sequence (Q12809 whole entry, looked up): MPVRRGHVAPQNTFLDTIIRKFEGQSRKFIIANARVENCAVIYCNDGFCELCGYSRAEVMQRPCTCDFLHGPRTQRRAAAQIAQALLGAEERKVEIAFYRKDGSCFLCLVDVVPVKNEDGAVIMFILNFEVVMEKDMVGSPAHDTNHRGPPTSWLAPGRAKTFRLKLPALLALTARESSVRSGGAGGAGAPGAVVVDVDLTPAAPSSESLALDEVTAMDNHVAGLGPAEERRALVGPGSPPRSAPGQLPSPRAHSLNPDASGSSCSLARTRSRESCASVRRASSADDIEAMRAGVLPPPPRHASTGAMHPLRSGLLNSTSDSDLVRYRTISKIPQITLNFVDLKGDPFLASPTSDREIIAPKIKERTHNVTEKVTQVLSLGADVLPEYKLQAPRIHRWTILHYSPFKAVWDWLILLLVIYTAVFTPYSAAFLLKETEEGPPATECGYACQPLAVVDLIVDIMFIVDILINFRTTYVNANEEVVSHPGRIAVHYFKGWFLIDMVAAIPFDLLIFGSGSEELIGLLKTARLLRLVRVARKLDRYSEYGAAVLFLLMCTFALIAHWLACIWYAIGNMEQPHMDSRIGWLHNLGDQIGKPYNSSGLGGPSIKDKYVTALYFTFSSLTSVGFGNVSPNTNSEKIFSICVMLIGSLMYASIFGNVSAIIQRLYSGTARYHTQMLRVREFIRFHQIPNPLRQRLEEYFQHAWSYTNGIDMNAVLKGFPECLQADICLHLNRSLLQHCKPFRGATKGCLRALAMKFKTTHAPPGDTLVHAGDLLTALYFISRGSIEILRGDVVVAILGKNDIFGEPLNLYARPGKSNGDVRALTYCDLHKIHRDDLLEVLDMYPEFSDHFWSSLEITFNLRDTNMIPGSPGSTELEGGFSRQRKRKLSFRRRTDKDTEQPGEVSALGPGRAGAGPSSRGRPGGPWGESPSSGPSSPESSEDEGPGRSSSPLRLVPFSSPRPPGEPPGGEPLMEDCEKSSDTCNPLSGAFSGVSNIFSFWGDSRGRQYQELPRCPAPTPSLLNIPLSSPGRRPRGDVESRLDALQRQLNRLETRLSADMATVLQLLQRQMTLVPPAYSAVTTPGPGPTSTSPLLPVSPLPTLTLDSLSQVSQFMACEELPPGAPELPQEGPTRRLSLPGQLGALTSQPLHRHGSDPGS
For `Cc1ccc(C)c(N2CC(C(=O)OCC(=O)Nc3cc(C)on3)CC2=O)c1` (stereo not drawn), the “hERG current change (%, negative = inhibition) at 10uM” value was 8.55%.
With `COCCCNC(=O)Cn1cnc2sc(C)c(S(=O)(=O)N3CCN(c4ncccn4)CC3)c2c1=O` the “hERG current change (%, negative = inhibition) at 10uM” value was 8.44%.
In the case of `COc1ccccc1NC(=O)COC(=O)C1CC1`, the “hERG current change (%, negative = inhibition) at 10uM” value is reported as 5.22%.
For `OCC1(CCOc2ccccc2)CCN(Cc2cn[nH]c2-c2ccc(F)cc2)CC1`, the “hERG current change (%, negative = inhibition) at 10uM” value was -71.6%.
With `Cc1cccc(COc2ccccc2C(=O)N(C)CC(=O)Nc2cccc(F)c2)c1` the “hERG current change (%, negative = inhibition) at 10uM” value was -4.68%.
`CCOc1cccc(-c2nnc(SCC(=O)Nc3cc(OC)cc(OC)c3)n2N)c1` was tested, and the “hERG current change (%, negative = inhibition) at 10uM” value was -1.3%.
For `CCOC(=O)/C=C/C(=O)OCC(=O)Nc1ccc([N+](=O)[O-])cc1`, the “hERG current change (%, negative = inhibition) at 10uM” value was -9.09%.
In the case of `CCOc1ccc(-c2cccc(NS(=O)(=O)c3ccccc3[N+](=O)[O-])c2)nn1`, the “hERG current change (%, negative = inhibition) at 10uM” value is reported as -3.5%.
`Cc1ccc(NC(=O)C2C(=O)N(CCO)C3(C)CC2c2ccccc2O3)cc1` (stereo not drawn) was tested, and the “hERG current change (%, negative = inhibition) at 10uM” value was -34.3%.
For `CN1CCN(C(=O)c2cnn(-c3ccccc3)c2NC(=O)c2ccccc2F)CC1`, the “hERG current change (%, negative = inhibition) at 10uM” value was -6.68%.
In the case of `CCCCc1ccc(NC(=O)C2CCN(S(C)(=O)=O)CC2)cc1`, the “hERG current change (%, negative = inhibition) at 10uM” value is reported as -1.64%.
In the case of `CCCCC(=O)NCc1ccc(F)cc1`, the “hERG current change (%, negative = inhibition) at 10uM” value is reported as 9.88%.
With `COc1cccc(NC(=O)C(=O)NCC2CCCN2S(=O)(=O)c2ccccc2)c1` (stereo not drawn) the “hERG current change (%, negative = inhibition) at 10uM” value was -21.2%.
With `COc1cccc(CNCCc2ccc(F)cc2)c1.O=C(O)C(=O)O` the “hERG current change (%, negative = inhibition) at 10uM” value was -9.82%.
With `CCOc1ccccc1NC(=O)NCc1ccc(F)cc1` the “hERG current change (%, negative = inhibition) at 10uM” value was -4.84%.
For `COc1ccc(-c2nnc(SCC3CCCO3)n2C)cc1` (stereo not drawn), the “hERG current change (%, negative = inhibition) at 10uM” value was 0.931%.
With `O=C(NC1CCCCC1)C(Cc1ccccc1)NS(=O)(=O)c1cccs1` (stereo not drawn) the “hERG current change (%, negative = inhibition) at 10uM” value was 18.2%.
`CCCN(C(=O)c1cn(-c2ccccc2)nc1-c1ccc(OC)cc1)C1CCS(=O)(=O)C1` (stereo not drawn) was tested, and the “hERG current change (%, negative = inhibition) at 10uM” value was -22.8%.
`CCCCCC(=O)Nc1ccc(C(=O)CN2C(=O)NC3(CCCCCC3)C2=O)cc1` was tested, and the “hERG current change (%, negative = inhibition) at 10uM” value was 5.54%.
With `Cc1cc(C)cc(Oc2ccccc2C=O)c1` the “hERG current change (%, negative = inhibition) at 10uM” value was 8.9%.
With `CC(C)Cc1nnc(NC(=O)CCC(=O)N2CCC3(CC2)OCCO3)s1` the “hERG current change (%, negative = inhibition) at 10uM” value was 12.3%.
With `CCCCNC(=O)Nc1ccnn1C1CCCCC1` the “hERG current change (%, negative = inhibition) at 10uM” value was 10.7%.
`O=S(=O)(NC1CCCC1)c1cccc(-c2nnc(-c3ccccc3)o2)c1` was tested, and the “hERG current change (%, negative = inhibition) at 10uM” value was 4.25%.
For `CCN(CC(=O)Nc1c(F)cccc1F)C(=O)c1cc(S(=O)(=O)NCc2ccccc2)ccc1C`, the “hERG current change (%, negative = inhibition) at 10uM” value was -24.9%.
